# Measurements as given in the supplement of paper PMC8728848.
# This is one part of the list.
# How the values were obtained:
# Test in all cases: glycan array binding signal (z-score within array); higher = stronger binding
# Conditions in all cases: glycan notation: IUPAC condensed, linker removed
# [1] = biological target: Neu5Ac(a2-3)Gal(b1-4)GlcNAc(b1-3)Gal(b1-4)GlcNAc(b1-2)Man(a1-3)[Neu5Ac(a2-3)Gal(b1-4)GlcNAc(b1-3)Gal(b1-4)GlcNAc(b1-2)Man(a1-6)]Man(b1-4)GlcNAc(b1-4)GlcNAc
# Summary of the method: (§1)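 The binding signal is a Z-score computed within each array. Data were drawn from 3228 arrays in the Consortium for Functional Glycomics database, restricted to those with a known protein sequence. Scores were averaged over arrays of the same protein sequence at different concentrations or buffers, and over linkers, and negative values can be taken as non-binding.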
# [2] = biological target: Neu5Ac(a2-3)Gal(b1-4)GlcNAc(b1-3)Gal(b1-4)GlcNAc(b1-3)Gal(b1-4)GlcNAc
# Summary of the method: as §1
# [3] = biological target: Neu5Ac(a2-3)Gal(b1-4)GlcNAc(b1-3)Gal(b1-4)GlcNAc(b1-3)Gal(b1-4)GlcNAc(b1-2)Man(a1-3)[Neu5Ac(a2-3)Gal(b1-4)GlcNAc(b1-3)Gal(b1-4)GlcNAc(b1-3)Gal(b1-4)GlcNAc(b1-2)Man(a1-6)]GalNAc
# Summary of the method: as §1
# [4] = biological target: Neu5Ac(a2-3)Gal(b1-4)GlcNAc(b1-3)Gal(b1-4)GlcNAc(b1-3)GalNAc
# Summary of the method: as §1
# [5] = biological target: Neu5Ac(a2-3)Gal(b1-4)GlcNAc(b1-3)Gal(b1-4)GlcNAc(b1-3)[Neu5Ac(a2-3)Gal(b1-4)GlcNAc(b1-3)Gal(b1-4)GlcNAc(b1-6)]GalNAc
# Summary of the method: as §1
# [6] = biological target: Neu5Ac(a2-3)Gal(b1-4)GlcNAc(b1-3)Gal(b1-4)GlcNAc(b1-6)[Gal(b1-3)]GalNAc
# Summary of the method: as §1
# [7] = biological target: Neu5Ac(a2-3)Gal(b1-4)GlcNAc(b1-3)Gal(b1-4)[Fuc(a1-3)]GlcNAc
# Summary of the method: as §1
# [8] = biological target: Neu5Ac(a2-3)Gal(b1-4)GlcNAc(b1-3)GalNAc
# Summary of the method: as §1
# [9] = biological target: Neu5Ac(a2-3)Gal(b1-4)GlcNAc(b1-3)[Neu5Ac(a2-3)Gal(b1-4)GlcNAc(b1-6)]GalNAc
# Summary of the method: as §1
# [10] = biological target: Neu5Ac(a2-3)Gal(b1-4)GlcNAc(b1-6)GalNAc
# Summary of the method: as §1
# [11] = biological target: Neu5Ac(a2-3)Gal(b1-4)GlcNAc(b1-6)[Gal(b1-3)]GalNAc
# Summary of the method: as §1
# [12] = biological target: Neu5Ac(a2-3)Gal(b1-4)GlcNAc(b1-6)[Neu5Ac(a2-3)Gal(b1-3)]GalNAc
# Summary of the method: as §1
# [13] = biological target: Neu5Ac(a2-3)Gal(b1-4)GlcNAc6S
# Summary of the method: as §1
# [14] = biological target: Neu5Ac(a2-3)Gal(b1-4)[Fuc(a1-3)]GlcNAc
# Summary of the method: as §1
# [15] = biological target: Neu5Ac(a2-3)Gal(b1-4)[Fuc(a1-3)]GlcNAc(b1-2)Man
# Summary of the method: as §1
# [16] = biological target: Neu5Ac(a2-3)Gal(b1-4)[Fuc(a1-3)]GlcNAc(b1-3)Gal
# Summary of the method: as §1
# [17] = biological target: Neu5Ac(a2-3)Gal(b1-4)[Fuc(a1-3)]GlcNAc(b1-3)Gal(b1-4)GlcNAc
# Summary of the method: as §1
# [18] = biological target: Neu5Ac(a2-3)Gal(b1-4)[Fuc(a1-3)]GlcNAc(b1-3)Gal(b1-4)[Fuc(a1-3)]GlcNAc(b1-3)Gal(b1-4)[Fuc(a1-3)]GlcNAc
# Summary of the method: as §1
# [19] = biological target: Neu5Ac(a2-3)Gal(b1-4)[Fuc(a1-3)]GlcNAc(b1-3)GalNAc
# Summary of the method: as §1
# [20] = biological target: Neu5Ac(a2-3)Gal(b1-4)[Fuc(a1-3)]GlcNAc(b1-6)[Gal(b1-3)]GalNAc
# Summary of the method: as §1
# [21] = biological target: Neu5Ac(a2-3)Gal(b1-4)[Fuc(a1-3)]GlcNAc(b1-6)[Neu5Ac(a2-3)Gal(b1-3)]GalNAc
# Summary of the method: as §1
# [22] = biological target: Neu5Ac(a2-3)Gal(b1-4)[Fuc(a1-3)]GlcNAc6S
# Summary of the method: as §1
# [23] = biological target: Neu5Ac(a2-3)Gal6S(b1-4)GlcNAc
# Summary of the method: as §1
# [24] = biological target: Neu5Ac(a2-3)Gal6S(b1-4)[Fuc(a1-3)]GlcNAc
# Summary of the method: as §1
# [25] = biological target: Neu5Ac(a2-3)GalNAc
# Summary of the method: as §1
# [26] = biological target: Neu5Ac(a2-3)GalNAc(b1-4)GlcNAc
# Summary of the method: as §1
# [27] = biological target: Neu5Ac(a2-3)[GalNAc(b1-4)]Gal(b1-4)Glc
# Summary of the method: as §1
# [28] = biological target: Neu5Ac(a2-3)[GalNAc(b1-4)]Gal(b1-4)GlcNAc
# Summary of the method: as §1
# [29] = biological target: Neu5Ac(a2-3)[GalNAc(b1-4)]Gal(b1-4)GlcNAc(b1-3)GalNAc
# Summary of the method: as §1
# [30] = biological target: Neu5Ac(a2-3)[Neu5Ac(a2-6)]GalNAc
# Summary of the method: as §1
# [31] = biological target: Neu5Ac(a2-6)Gal
# Summary of the method: as §1
# [32] = biological target: Neu5Ac(a2-6)Gal(b1-3)GlcNAc(b1-3)[Gal(b1-4)GlcNAc(b1-6)]Gal(b1-4)Glc
# Summary of the method: as §1
# [33] = biological target: Neu5Ac(a2-6)Gal(b1-4)Glc
# Summary of the method: as §1
# [34] = biological target: Neu5Ac(a2-6)Gal(b1-4)GlcNAc
# Summary of the method: as §1
# [35] = biological target: Neu5Ac(a2-6)Gal(b1-4)GlcNAc(b1-2)Man
# Summary of the method: as §1
# [36] = biological target: Neu5Ac(a2-6)Gal(b1-4)GlcNAc(b1-2)Man(a1-3)Man(b1-4)GlcNAc(b1-4)GlcNAc
# Summary of the method: as §1
# [37] = biological target: Neu5Ac(a2-6)Gal(b1-4)GlcNAc(b1-2)Man(a1-3)[Gal(b1-4)GlcNAc(b1-2)Man(a1-6)]Man(b1-4)GlcNAc(b1-4)GlcNAc
# Summary of the method: as §1
# [38] = biological target: Neu5Ac(a2-6)Gal(b1-4)GlcNAc(b1-2)Man(a1-3)[GlcNAc(b1-2)Man(a1-6)]Man(b1-4)GlcNAc(b1-4)GlcNAc
# Summary of the method: as §1
binder,measurement,setting,value
DC-ASGPR L+GEE (Homo sapiens) (protein) MTRTYENFQYLENKVKVQGFKNGPLPLQSLLQRLRSGPCHLLLSLGLGLLLLVIICVVGFQNSKFQRDLVTLRTDFSNFTSNTVAEIQALTSQGSSLEETIASLKAEVEGFKQERQAGVSELQEHTTQKAHLGHCPHCPSVCVPVHSEMLLRVQQLVQDLKKLTCQVATLNNNGEEASTEGTCCPVNWVEHQDSCYWFSHSGMSWAEAEKYCQLKNAHLVVINSREEQNFVQKYLGSAYTWMGLSDPEGAWKWVDGTDYATGFQNWKPGQPDDWQGHGLGGGEDCAHFHPDGRWNDDVCQRPYHWVCEAGLGQTSQESH,glycan array binding signal (z-score),[1],-0.164
same,glycan array binding signal (z-score),[2],-0.22
same,glycan array binding signal (z-score),[3],0.18
same,glycan array binding signal (z-score),[4],-0.216
same,glycan array binding signal (z-score),[5],-0.122
same,glycan array binding signal (z-score),[6],-0.553
same,glycan array binding signal (z-score),[7],-0.228
same,glycan array binding signal (z-score),[8],0.559
same,glycan array binding signal (z-score),[9],-0.445
same,glycan array binding signal (z-score),[10],3
same,glycan array binding signal (z-score),[11],-0.019
same,glycan array binding signal (z-score),[12],-0.577
same,glycan array binding signal (z-score),[13],-0.407
same,glycan array binding signal (z-score),[14],-0.443
same,glycan array binding signal (z-score),[15],-0.528
same,glycan array binding signal (z-score),[16],-0.001
same,glycan array binding signal (z-score),[17],-0.068
same,glycan array binding signal (z-score),[18],-0.143
same,glycan array binding signal (z-score),[19],0.838
same,glycan array binding signal (z-score),[20],-0.693
same,glycan array binding signal (z-score),[21],-0.297
same,glycan array binding signal (z-score),[22],-0.418
same,glycan array binding signal (z-score),[23],-0.494
same,glycan array binding signal (z-score),[24],-0.509
same,glycan array binding signal (z-score),[25],-0.223
same,glycan array binding signal (z-score),[26],-0.213
same,glycan array binding signal (z-score),[27],0.821
same,glycan array binding signal (z-score),[28],0.264
same,glycan array binding signal (z-score),[29],0.219
same,glycan array binding signal (z-score),[30],0.194
same,glycan array binding signal (z-score),[31],-0.394
same,glycan array binding signal (z-score),[32],-0.639
same,glycan array binding signal (z-score),[33],-0.594
same,glycan array binding signal (z-score),[34],-0.57
same,glycan array binding signal (z-score),[35],0.432
same,glycan array binding signal (z-score),[36],-0.012
same,glycan array binding signal (z-score),[37],0.004
same,glycan array binding signal (z-score),[38],-0.362
